The full ranking holds about 33,000 sequences; the median of “E-score (-0.5 to 0.5)” is about -0.041, and the highest 2% start at about 0.37. Some of the results follow.
Target: T1, Ecm22 (UniProt Q05958)
T1 sequence: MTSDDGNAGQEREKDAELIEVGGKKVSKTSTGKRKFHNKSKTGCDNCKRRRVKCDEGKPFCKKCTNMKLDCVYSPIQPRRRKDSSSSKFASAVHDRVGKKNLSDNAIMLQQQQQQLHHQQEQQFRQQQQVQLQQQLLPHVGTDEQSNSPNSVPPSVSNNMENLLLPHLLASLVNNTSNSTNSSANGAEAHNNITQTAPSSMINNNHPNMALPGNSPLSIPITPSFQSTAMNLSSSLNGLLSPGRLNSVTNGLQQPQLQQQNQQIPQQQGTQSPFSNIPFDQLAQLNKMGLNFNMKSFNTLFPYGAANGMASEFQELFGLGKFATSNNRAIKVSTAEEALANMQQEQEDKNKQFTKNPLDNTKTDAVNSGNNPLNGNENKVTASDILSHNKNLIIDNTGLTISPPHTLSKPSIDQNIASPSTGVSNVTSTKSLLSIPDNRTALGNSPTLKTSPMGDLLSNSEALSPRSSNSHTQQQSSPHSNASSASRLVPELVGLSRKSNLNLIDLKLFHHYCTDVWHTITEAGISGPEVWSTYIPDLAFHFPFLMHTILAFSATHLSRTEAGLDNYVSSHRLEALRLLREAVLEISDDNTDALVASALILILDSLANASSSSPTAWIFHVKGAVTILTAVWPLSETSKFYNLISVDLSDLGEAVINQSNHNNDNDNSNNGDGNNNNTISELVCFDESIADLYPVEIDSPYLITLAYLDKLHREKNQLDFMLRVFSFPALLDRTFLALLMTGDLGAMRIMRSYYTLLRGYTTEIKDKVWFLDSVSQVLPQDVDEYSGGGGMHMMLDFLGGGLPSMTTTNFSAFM
Test: PBM E-score (8-mer binding enrichment) (E-score (-0.5 to 0.5)); higher = stronger / more preferred TF binding; most listed sequences are background and not binding sites
Details: protein concentration: 200 nM; construct: GST-full length
In short: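 Yeast transcription factors, full-length or as DNA-binding domains, were expressed with a GST tag using PURExpress in vitro transcription/translation. At about 100-200 nM they were applied to universal all-10-mer Agilent arrays, double-stranded by primer extension on fresh or once-stripped slides. Fluorescent anti-GST detected bound protein, and masliner normalised the scans. E-scores for ungapped eight-base words, pooled with reverse complements, came from the Universal PBM Analysis Suite.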

| Sequence | PBM E-score |
| --- | --- |
| CTCGGTGA | 0.101 |
| CTGACGTA | 0.132 |
| CTAGCGTC | -0.161 |
| ACTGTATA | 0.104 |
| AGTGATCG | 0.126 |
| ATGAACGG | 0.262 |
| GTTATTCA | 0.0462 |
| ATGCACTA | 0.128 |
| GCCCTCCC | -0.174 |
| AGCGATAT | 0.222 |
| CAAAATAC | 0.0309 |
| CCAATTGA | -0.204 |
| ATCACCTG | -0.277 |
| GACCCAAA | 0.00812 |
| TAAGTGAA | 0.072 |
| CGCCACCC | -0.0601 |
| GGCAAGAC | -0.065 |
| ATTATTGG | -0.184 |
| CCTAGATC | -0.139 |
| GCTAAAGC | -0.0529 |
| ACTCTGCA | -0.0125 |
| CAGATCGG | -0.038 |
| GCGAGCCA | 0.0714 |
| CGTACAGC | 0.427 |
| ACCATTTC | -0.202 |

| Sequence | PBM E-score |
| --- | --- |
| CCCGTAAG | 0.115 |
| AACCCATC | -0.0889 |
| ATGGACAT | -0.107 |
| CCTCTTTA | -0.0699 |
| GTAGTGTA | 0.0666 |
| GAAGGACA | -0.0935 |
| ACAGCGTA | 0.141 |
| ACTCTACG | 0.265 |
| GGCCTGAA | -0.278 |
| ACTTGTCG | 0.204 |
| CAATCAAC | -0.0638 |
| GGAAACCA | -0.293 |
| AAATGTAA | 0.0253 |
| AGTTTCTC | -0.021 |
| CATGTCCA | -0.119 |
| GTCGCGCA | -0.00296 |
| CTACCCAA | -0.126 |
| CTACAAAG | -0.238 |
| AGTGACAG | -0.0965 |
| GATCAGAA | -0.174 |
| ATACCCCG | -0.128 |
| AAGGGCAA | -0.163 |
| CATTCAGC | -0.201 |
| CAGCTATG | -0.0357 |
| CATGGACA | -0.202 |

| Sequence | PBM E-score |
| --- | --- |
| GATCGACC | 0.0467 |
| ACCCGACC | 0.19 |
| CAGTCATA | -0.194 |
| TAGGGCAA | -0.185 |
| CCGCTTGA | -0.116 |
| AACAGGCG | -0.154 |
| GCGTGGCA | -0.124 |
| CAGTGTTA | 0.0329 |
| ATAATGTA | 0.11 |
| CGGGGAGC | -0.0232 |
| CGCACGAC | 0.07 |
| ATTGCACA | -0.0338 |
| GAGAAGTA | -0.0967 |
| CGTCACAG | -0.1 |
| ATAAGCGA | 0.332 |
| ACGCACAC | 0.104 |
| AGTGTGAT | 0.107 |
| CCTGTACC | -0.0544 |
| AATGAGAA | -0.144 |
| CCGACAAC | 0.178 |
| AACCGTTC | 0.34 |
| AGGTGGGC | -0.228 |
| AGTCGAAT | -0.0942 |
| ACCCACCT | -0.29 |
| CCTGTCAC | -0.0408 |

| Sequence | PBM E-score |
| --- | --- |
| ATTTCGTC | 0.0861 |
| TATAACAA | -0.0233 |
| GTGAAGTA | 0.0181 |
| CCCGAGGG | 0.158 |
| ACTGATCG | 0.00137 |
| GCCTGGGA | -0.244 |
| AAACTACA | -0.0352 |
| ACGGCAGA | 0.226 |
| CATCGAAC | 0.0164 |
| AACTTAGT | -0.0291 |
| ATCATGTG | -0.193 |
| CGGGATAC | 0.266 |
| GGCTCCCC | -0.294 |
| ATAATGCG | 0.163 |
| AGTTCCTA | 0.102 |
| CTCCCAGA | -0.111 |
| ACAGAAGC | -0.0614 |
| GCCATGGC | -0.296 |
| ATACGAAC | 0.474 |
| GAGGGGGA | -0.0311 |
| AGCACCCA | -0.0799 |
| AACGCTTG | -0.121 |
| TATCAAGA | -0.0146 |
| ACCTGATC | -0.053 |
| ACAGAACC | -0.115 |

| Sequence | PBM E-score |
| --- | --- |
| TGTATAAA | 0.172 |
| AAACCCTC | -0.187 |
| CAGCAACC | -0.127 |
| TACTATAA | -0.0205 |
| CCGCTCCG | 0.238 |
| CAGGCGCG | -0.16 |
| ACTCGGAG | -0.0452 |
| GTTTACGA | 0.46 |
| ACCCATAT | 0.118 |
| AACGATGA | 0.386 |
| CGAGAGCG | 0.282 |
| ACATTTAA | -0.0504 |
| ATGTACGC | 0.112 |
| ACGATATG | 0.313 |
| GCCCGCAC | -0.0245 |
| GCACGGTA | -0.0289 |
| CTGACTCC | -0.149 |
| ACGAGAAC | 0.4 |
| CTCTTAAC | 0.0664 |
| GCACTTCC | -0.303 |
| ATTCCCAC | -0.151 |
| GCAATCAC | -0.0838 |
| AATGAGGC | -0.134 |
| TAGGCAAA | -0.179 |
| AAAGGCGG | 0.0199 |

| Sequence | PBM E-score |
| --- | --- |
| AATAGGTC | 0.0337 |
| ACCGATTA | 0.219 |
| CCTCCGAA | -0.154 |
| GAACAGGC | -0.0122 |
| CTGATTGA | -0.0814 |
| AAACCACT | -0.153 |
| GCCCGGAC | 0.0159 |
| AATAGCGA | 0.128 |
| ACTCGCTA | 0.27 |
| AATACCTG | -0.0223 |
| ACGAAAGC | 0.337 |
| ATGAACCG | 0.1 |
| ACCTTAAG | 0.0677 |
| CCCCGAAA | -0.201 |
| AATCGTCG | 0.222 |
| TAATCACA | -0.139 |
| ACCGGTGG | -0.185 |
| GGACTCAC | -0.172 |
| CCACAGAC | -0.288 |
| CGACCCCC | -0.12 |
| GAGGTCAC | -0.0843 |
| CCGTCGAC | -0.115 |
| CCCCAGGA | -0.304 |
| GCTGATAC | 0.0686 |
| AATGACCG | 0.0584 |

| Sequence | PBM E-score |
| --- | --- |
| ACACGCCT | -0.162 |
| CTCGCGCA | 0.157 |
| GTGGTAGA | -0.208 |
| AATGCGCG | 0.0895 |
| ATCTGCTA | 0.019 |
| ACGTTGAC | 0.0967 |
| AGAAGCTA | -0.0596 |
| CAAGGCGG | -0.186 |
| ATACCCAA | -0.0827 |
| GCAGGTAA | 0.0142 |
| GTCCCCAA | -0.0658 |
| AATGGCAC | -0.283 |
| AGCTGCTG | 0.0118 |
| ATGTTGTA | 0.0872 |
| CCGTCAGA | -0.155 |
| CCGCCGGC | -0.254 |
| ACTGAAAC | 0.142 |
| CTTTCCCC | -0.129 |
| ACACAAAA | 0.0511 |
| ACAGTAGT | 0.0302 |
| CGTCTATA | -0.0795 |
| CACGACCC | -0.0107 |
